According to PubChem BioAssay AID504333 (National Center for Advancing Translational Sciences (NCATS), 2011):
Screen size: about 360,000 compounds; about 16,000 (4.4%) were called active. The inconclusive results got no clear call from the source; some entries with a clear call stand among them for comparison. Calls follow the shape of the dose curve; as a rule, active = well fitted inhibition curve with a large enough effect; inconclusive = small, poorly fitted or top-dose-only effect; inactive = no such curve, though single readings can be large or run the other way. Potencies of inconclusive entries are doubtful fits and often do not repeat.

Molecular target: Bromodomain adjacent to zinc finger domain protein 2B (Homo sapiens) (UniProt Q9UIF8)
Test: qHTS Assay for Inhibitors of BAZ2B; also: nearly all actives have a fitted effect of over 60% in size
Settings: AlphaScreen BAZ2B-H3K14Ac peptide displacement; activity change, negative = inhibition: at 114 µM (top of the series)
Procedure, shortened: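 Protein-peptide AlphaScreen: BAZ2B 50 nM, b-H3K14Ac 50 nM, 1x PBS pH 7.4 + 0.01% Tween-20. Preincubation 30 min RT; cpd 30 min RT (top 110 uM); beads 20 min RT, light-protected.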
% is scaled to controls: 0 for no effect and ±100 for the full control effect; potency is read from the fitted curve at half-maximal effect; tags tell the direction and shape of the fitted curve.

Sequence of UniProt Q9UIF8 (Q9UIF8 whole entry, looked up, the tested form may be a part): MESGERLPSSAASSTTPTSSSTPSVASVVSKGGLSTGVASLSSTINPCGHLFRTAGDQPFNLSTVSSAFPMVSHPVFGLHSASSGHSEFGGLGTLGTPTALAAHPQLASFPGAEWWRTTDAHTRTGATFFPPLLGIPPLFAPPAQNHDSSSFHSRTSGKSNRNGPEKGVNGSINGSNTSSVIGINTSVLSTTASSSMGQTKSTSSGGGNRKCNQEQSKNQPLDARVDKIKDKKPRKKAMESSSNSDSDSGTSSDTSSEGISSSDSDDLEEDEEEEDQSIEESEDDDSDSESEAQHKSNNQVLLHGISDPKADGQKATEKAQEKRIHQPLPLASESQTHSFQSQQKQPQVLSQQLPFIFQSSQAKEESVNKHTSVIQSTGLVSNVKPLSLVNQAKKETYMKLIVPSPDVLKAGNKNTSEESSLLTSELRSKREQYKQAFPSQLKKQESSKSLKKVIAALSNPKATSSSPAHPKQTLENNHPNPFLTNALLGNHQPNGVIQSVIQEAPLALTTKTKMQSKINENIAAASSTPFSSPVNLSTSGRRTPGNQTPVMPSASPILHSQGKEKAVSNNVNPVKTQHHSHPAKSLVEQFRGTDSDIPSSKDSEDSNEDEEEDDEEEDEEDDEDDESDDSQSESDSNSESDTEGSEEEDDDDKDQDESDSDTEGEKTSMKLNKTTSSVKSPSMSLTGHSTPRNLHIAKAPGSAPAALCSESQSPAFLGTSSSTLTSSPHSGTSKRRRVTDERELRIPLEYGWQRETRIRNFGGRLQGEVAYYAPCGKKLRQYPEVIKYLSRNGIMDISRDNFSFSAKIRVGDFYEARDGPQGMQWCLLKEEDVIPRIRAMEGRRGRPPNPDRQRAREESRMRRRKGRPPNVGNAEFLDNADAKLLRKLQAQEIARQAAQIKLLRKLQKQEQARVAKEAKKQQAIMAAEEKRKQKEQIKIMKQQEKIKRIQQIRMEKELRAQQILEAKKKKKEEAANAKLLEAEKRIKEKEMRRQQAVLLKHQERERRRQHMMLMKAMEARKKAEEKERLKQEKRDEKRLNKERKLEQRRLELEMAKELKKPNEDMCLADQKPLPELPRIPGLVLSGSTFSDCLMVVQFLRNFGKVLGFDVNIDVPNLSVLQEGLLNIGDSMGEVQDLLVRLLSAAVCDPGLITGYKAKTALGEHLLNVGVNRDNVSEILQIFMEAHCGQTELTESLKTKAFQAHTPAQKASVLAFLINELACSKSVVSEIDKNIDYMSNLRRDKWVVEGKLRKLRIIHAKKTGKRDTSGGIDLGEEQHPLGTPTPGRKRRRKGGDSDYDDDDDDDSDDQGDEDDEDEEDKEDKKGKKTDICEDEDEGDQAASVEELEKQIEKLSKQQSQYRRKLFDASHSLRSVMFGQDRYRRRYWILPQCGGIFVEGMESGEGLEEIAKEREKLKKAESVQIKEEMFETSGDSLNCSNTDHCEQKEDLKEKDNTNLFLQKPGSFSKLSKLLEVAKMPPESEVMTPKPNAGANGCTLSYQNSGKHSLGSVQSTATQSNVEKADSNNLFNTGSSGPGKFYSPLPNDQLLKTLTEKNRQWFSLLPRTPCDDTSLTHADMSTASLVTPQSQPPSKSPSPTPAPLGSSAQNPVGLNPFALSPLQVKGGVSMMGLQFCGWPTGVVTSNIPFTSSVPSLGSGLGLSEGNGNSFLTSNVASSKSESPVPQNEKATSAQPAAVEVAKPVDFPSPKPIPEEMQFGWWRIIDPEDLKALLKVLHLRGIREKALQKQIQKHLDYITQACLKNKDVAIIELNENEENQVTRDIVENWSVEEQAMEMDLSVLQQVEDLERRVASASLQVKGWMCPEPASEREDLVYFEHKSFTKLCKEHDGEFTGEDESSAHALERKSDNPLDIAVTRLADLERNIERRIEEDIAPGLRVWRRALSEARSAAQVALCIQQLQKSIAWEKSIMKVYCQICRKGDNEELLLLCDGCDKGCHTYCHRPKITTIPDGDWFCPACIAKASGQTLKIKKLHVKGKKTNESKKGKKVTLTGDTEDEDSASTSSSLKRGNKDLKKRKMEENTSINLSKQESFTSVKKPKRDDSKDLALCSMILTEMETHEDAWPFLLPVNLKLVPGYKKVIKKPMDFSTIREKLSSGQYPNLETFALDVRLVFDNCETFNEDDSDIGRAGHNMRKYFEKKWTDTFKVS

SMILES | activity change, negative = inhibition | Potency
COc1cc(SC)ccc1C(=O)N1CCN(S(=O)(=O)/C=C/c2ccccc2)CC1 | inactive: -3.05% | 
CN(C)c1ccc(CN(C)C2CCCCC2)cc1 |  | inconclusive: 89.1 µM [inhibitor, single point]
CCCCN(C(=O)Cc1ccc(S(=O)(=O)N2CCOCC2)s1)c1c(N)n(CC(C)C)c(=O)[nH]c1=O | inactive: 19.3% | 
COc1ccc(NC(=O)c2ccco2)cc1NC(=O)COc1ccc(C)c(C)c1 |  | inconclusive: 89.1 µM [inhibitor, single point]
Cc1ccc(N/N=C2\COC(C)(C)CC2=O)cc1 |  | inconclusive: 89.1 µM [inhibitor, single point]
c1ccc(Nc2cc(Nc3ccccc3)[nH]n2)cc1 |  | active: 44.7 µM
CN(C)S(=O)(=O)c1cccc(-c2nnc(SCC(=O)NCCCCCC(=O)O)n2-c2ccc(F)cc2)c1 | inactive: -7.09% | 
Cc1ccc(-n2c(-c3cnccn3)n[nH]c2=S)cc1 |  | active: 79.4 µM
CCCCNC(=O)c1nn(C)c2c1CSc1ccccc1-2 |  | inconclusive: 11.2 µM [inhibitor, full curve]
CCn1nc(C)cc1C(=O)N1CCc2c([nH]c3ccccc23)C1c1cc(F)ccc1F (configuration not stated) |  | inconclusive: 70.8 µM [inhibitor, single point]
Cc1cc(C(=O)Nc2sc3c(c2C#N)CCC3)no1 | inactive: -31.2% | 
O=C(CCS(=O)(=O)c1ccc(Br)cc1)Nc1cc(F)ccc1F |  | active: 44.7 µM
CC(C)(C#CCN1CCCCC1)OCCOC(c1ccccc1)c1ccccc1 |  | inconclusive: 63.1 µM [inhibitor, partial curve, poor fit]
O=C(N/N=C\c1ccccc1OCc1ccccc1)c1ccco1 |  | inconclusive: 50.1 µM [inhibitor, partial curve]
CCN(CC)C(=O)C1CCCN(Cc2sccc2C)C1 (configuration not stated) |  | active: 28.2 µM
CC(=O)c1c(C)[nH]c(C(=O)CN2C(=O)NC(C)(C)C2=O)c1C |  | inconclusive: 100 µM [inhibitor, single point]
COCCNC(=S)N(CCc1c(C)[nH]c2ccccc12)Cc1ccco1 |  | inconclusive: 56.2 µM [inhibitor, partial curve]
Cc1ccccc1C(=O)Nc1cc(C)c(O)c(-c2nc3ccccc3o2)c1 | inactive: -18.7% | 
CC1CCN(CC2CCN(C(=O)NCc3ccccc3)CC2)CC1 | inactive: -3.21% | 
COc1ccc(N(C(=O)Cc2cccs2)C2C=CS(=O)(=O)C2)cc1 (configuration not stated) |  | inconclusive: 79.4 µM [inhibitor, single point]
CCn1cc(C(=O)NCc2ccc3c(c2)OCO3)c(=O)c2cc(F)c(N3CCN(C)CC3)cc21 |  | inconclusive: 50.1 µM [inhibitor, partial curve]
O=[N+]([O-])c1ccc2c(c1)/C(=N\O)c1ccccc1-2 | inactive: -15.1% | 
COc1ccc(C(=O)NC(=S)Nc2ccccc2N2CCOCC2)cc1Br |  | inconclusive: 39.8 µM [inhibitor, full curve, poor fit]
Clc1ccc(-c2nc(C3CCCCC3)no2)cc1 | inactive: -5.36% | 

SMILES | activity change, negative = inhibition | Potency
CCN1C(=O)/C(=C\N2CCN(c3ccc(F)cc3)CC2)SC1=S | inactive: -30% | 
COc1ccc(OCc2nc(C#N)c(N3CCN(c4ccc(OC)cc4)CC3)o2)cc1 |  | inconclusive: 25.1 µM [inhibitor, full curve]
CCOC(=O)CN1C(=O)C(O)(c2c(C)[nH]c3ccccc23)c2ccccc21 (configuration not stated) |  | inconclusive: 79.4 µM [inhibitor, single point]
C#CCOCCOCCOCCNc1nc(N2CCN(C(=O)[C@H](CCC(=O)O)n3cc(C(N)CO)nn3)CC2)nc(N2CCN(C(=O)[C@H](Cc3ccc(O)cc3)n3cc(C(N)[C@H](C)CC)nn3)CC2)n1 (some centres not stated) |  | active: 39.8 µM
N#C/C(=C(/O)CCl)c1nc(-c2ccccc2)cs1 |  | inconclusive: 70.8 µM [inhibitor, single point]
CN(C)S(=O)(=O)c1ccc(NCC2COc3ccccc3O2)c([N+](=O)[O-])c1 (configuration not stated) |  | inconclusive: 31.6 µM [inhibitor, partial curve]
O=C(N/N=C/C1CCCCC1)c1ccccn1 |  | inconclusive: 79.4 µM [inhibitor, single point]
CCc1ccccc1NC(=O)N1CCOc2ccccc21 |  | inconclusive: 89.1 µM [inhibitor, single point]
O=C(COC(=O)c1cc[n+]([O-])cc1)Nc1ccc(Cl)cc1[N+](=O)[O-] |  | inconclusive: 79.4 µM [inhibitor, single point]
CCOC(=O)/C(C#N)=C/c1c(N2CCCCCC2)nc2ccccn2c1=O |  | inconclusive: 50.1 µM [inhibitor, partial curve]
COc1ccccc1NC(=S)NC(=O)/C=C/c1ccco1 |  | active: 50.1 µM
Cc1ccc(C(=O)c2c(NC(=O)c3ccccc3C)sc(C)c2C)cc1 |  | inconclusive: 25.1 µM [inhibitor, full curve, poor fit]
CC(NC1CCCC1)C(=O)Nc1ccccc1-c1ccccc1 (configuration not stated) |  | active: 79.4 µM
NC(=O)C1CCN(Cc2cccc(OCc3ccccc3)c2)CC1 |  | inconclusive: 79.4 µM [inhibitor, single point]
CCOC(=O)C1=C(C)NC2=C(C(=O)CC(c3ccc(OC)c(OC)c3)C2)C1c1ccc(C)o1 (configuration not stated) |  | inconclusive: 89.1 µM [inhibitor, single point]
CCOC(=O)c1ccc(CC(=O)c2oc3cc(O)ccc3c2C)o1 |  | inconclusive: 79.4 µM [inhibitor, single point]
COc1ccc(CC(=O)NCc2nnc(SCc3ccc([N+](=O)[O-])cc3)n2C)cc1 | inactive: -13% | 
O=C(C[n+]1cc(-c2ccccc2)n2c1CCC2)Nc1nc(-c2ccccc2)cs1 | inactive: -32.9% | 
Cc1cn2c(=O)cc(COC(=O)c3ccc(NC(=O)COc4ccccc4C)cc3)nc2s1 | inactive: -11.1% | 
COc1ccc2cc(C(=O)NCCO)sc(=O)c2c1OC | inactive: 2.57% | 
C[C@H](N)c1nnc(SCc2c(Cl)cccc2Cl)o1 |  | inconclusive: 79.4 µM [inhibitor, single point]
COC(=O)CC1C(=O)NC(C)=C1C(=O)OC (configuration not stated) | inactive: -16.1% | 
Cc1nn(-c2ccccc2)c(N)c1N=Nc1cccc(S(=O)(=O)N2CCOCC2)c1 |  | active: 28.2 µM
